Experimental data from PubChem BioAssay (NCI).
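A five-concentration, 48-hour dose response in 96-well plates underlies each endpoint, interpolated linearly between surrounding concentrations. GI50 = concentration required for 50% inhibition of growth. TGI denotes the concentration required for complete inhibition of growth.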

System: NCI-H322M lung
Experiment: DTP human tumour cell line panel, 48 h

COc1ccccc1N=NC(C(=O)c1ccccc1)C(=O)c1ccccc1
TGI: 36.3 µM

CCCCc1ccc(NS(=O)(=O)c2cc3c4c(c2)CCN4C(=O)CC3)cc1
GI50: 69.6 µM
TGI: > 100 µM

COC(=O)/C(C#N)=C1\CCC(OC)N1 (stereo unspecified)
TGI: > 100 µM

CCOC(=O)NC(=O)c1cn(CCN2CCN(C(=O)CCCCCCCCCCNc3ncnc4c3ncn4C3OC(CO)C(O)C3O)CC2)c(=O)[nH]c1=O (stereo unspecified)
TGI: > 100 µM

COC(=O)C1=C(OC(=O)/C(=C/c2ccccc2)c2ccc([N+](=O)[O-])cc2)C(C(=O)OC)[C@@]2(O)[C@@H](C(=O)OC)[C@H](C)C[C@@H]1[C@@H]2C(=O)OC (stereo partly specified)
TGI: > 100 µM

Cn1c([N+](=O)[O-])cnc1/C=C1\Oc2ccc(Br)cc2C1=O
GI50: 3.58 µM
TGI: 15.2 µM

COC(=O)C1=C(C(=O)OC)SC2(S1)C1=C(CCC1)SC(C(=O)OC)=C2C(=O)OC
TGI: 31.2 µM

NCCC1([N+](=O)[O-])C=CN=CC1 (stereo unspecified)
TGI: > 100 µM

CN1C(=O)C(/C=N/NC(=O)c2cccnc2)C(N)N(C)C1=O (stereo unspecified)
TGI: > 100 µM

Cn1c(=O)c2[nH]c(CCCCc3nc4ccccc4[nH]3)nc2n(C)c1=O
TGI: > 100 µM

O=C1CC(=O)c2c(N3CCCC3)sc(N3CCCC3)c21
TGI: > 100 µM

COC1=C(C)C(=O)N2[C@@H]1[C@H](c1ccccc1)OC21C=CC(=O)C=C1
GI50: 16.6 µM
TGI: > 43.8 µM

COc1ccccc1/C=C/C(=O)c1ccc(Nc2nc(Nc3ccc(F)cc3)nc(Nc3ccc(F)cc3)n2)cc1
GI50: 28.2 µM
TGI: > 100 µM

COC1=CC(=O)c2c(c(-c3csc(C)n3)cn2C)C1=O
TGI: > 65.1 µM

CCCCCCCCCCCC(=O)N(CCCCCCCCCCC(=O)O)CC(O)C(O)C(OC1OC(CO)C(O)C(O)C1O)C(O)CO (stereo unspecified)
TGI: > 100 µM

CC(C)(C)OC(=O)NCC(=O)NC1CC=CCC1NC(=O)CNC(=O)OC(C)(C)C (stereo unspecified)
TGI: > 100 µM

NCCCNc1nc2ccccc2c2c(=O)c3cccc(F)c3sc12
GI50: 1.53 µM
TGI: 2.93 µM

O=C(O)[C@@H](NS(=O)(=O)c1ccc(F)cc1)c1ccccc1
TGI: > 100 µM

COc1ccc(/C=C/C(=O)c2c(O)c(C)c(O)c3c2OC2=CC(O)=C(C(C)=O)C(=O)[C@]23C)cc1
GI50: 0.954 µM
TGI: 5.37 µM

COc1cc(Nc2ncc3c(C)nc(-c4cccc(C(F)(F)F)c4)n3n2)cc(OC)c1OC
GI50: 3.9 µM
TGI: 7.9 µM

COc1ccc(Cc2c(N)[nH]c(=O)[nH]c2=O)cc1
TGI: > 100 µM

CCCOc1ccc2sc(NC(=O)c3cc([N+](=O)[O-])cc([N+](=O)[O-])c3)nc2c1
TGI: > 100 µM

C=C(C)[C@@H]1/C=C(/C(C)C)CC[C@@]2(C)OC2CC[C@H](C)CC1=O (stereo partly specified)
GI50: 35.6 µM
TGI: > 73.5 µM

O=C1c2c(O)ccc(O)c2C(=O)c2c(NCCNC(=O)C(O)C(O)C(O)C(O)CO)ccc(NCCNC(=O)C(O)C(O)C(O)C(O)CO)c21 (stereo unspecified)
TGI: 1.07 µM

Cc1ccc(N(CC(=O)Nc2ccc(S(=O)(=O)NC3CCN(C)CC3)cc2)S(=O)(=O)c2ccc(Cl)cc2)cc1
GI50: 3.38 µM
TGI: 12.9 µM

COc1ccc(-c2cc(C(=O)N3N=C(c4ccc(N)cc4)CC3c3ccc(Cl)cc3)c3ccccc3n2)cc1 (stereo unspecified)
GI50: 6 µM
TGI: > 100 µM

Cc1cc(=O)[nH]c(-n2[nH]c3c(c2=O)CCCC3)n1
TGI: > 100 µM

COc1ccc(C(c2ccc(OC)cc2)N2C(=O)CCC2C(=O)O)cc1 (stereo unspecified)
TGI: > 100 µM

CC(=O)Nc1cccc2[nH]c3ccccc3c(=O)c12
TGI: 61.8 µM

COc1cc(Nc2cc(O)c3c(=O)cc(-c4ccccc4)oc3c2)cc(OC)c1
GI50: 0.653 µM
TGI: > 70.1 µM

CCN(Cc1cc(F)cc(F)c1)c1ccc(CO)c(Cl)c1
GI50: 8.69 µM
TGI: 23.2 µM

C1C[OH+]CCNCC[OH+]CC[OH+]CCN1.O.[Cl-].[Pt+4]
GI50: > 10 µM
TGI: > 10 µM

CCOC(=O)/C=C1/Oc2ccccc2C1(C)O (stereo unspecified)
TGI: > 100 µM

C#CCn1c(=O)[nH]c(=O)c2cccnc21
TGI: > 100 µM

O=c1c(-c2ccccc2)c(SCCN2CCCC2)n(-c2ccccc2)c(=S)n1-c1ccccc1
TGI: > 100 µM

O=C(/C=C/c1c(-c2ccccc2)[nH]c2ccccc12)S(=O)(=O)c1ccccc1
GI50: > 100 µM
TGI: > 100 µM

CN(C)C1C(CO)OC(n2cnc3c(N)ncnc32)C1O (stereo unspecified)
TGI: > 100 µM
